The campaign covered roughly 48,000 compounds. About 120 (0.25%) were called active. Inconclusive results (about 4%) are left out. Calls come from the whole dose curve; as a rule, active = well fitted activation curve with a large enough effect; inconclusive = small, poorly fitted or top-dose-only effect, or another doubt; inactive = no such curve, though single readings can be large or run the other way. The list shows a part of the results.
Experiment: Primary qHTS for Identification of Small Molecule Activators of Huntingtin-Antisense Promoter Activity; note: nearly all actives have a fitted effect of over 55% in size
Conditions: HEK293 HTT-AS promoter firefly luciferase reporter, 24 h; series mostly up to 57.5 µM; activity change, positive = activation: at the top concentration
In short: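 Firefly luciferase signal from promoter-reporter HEK293 cells was scaled between vehicle (0%) and zero RLU (-100%). Compounds were tested at final concentrations of up to 57.5 uM over 24 h at 37 degrees C. PTC124 at 50 uM final served as control inhibitor.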
Potency is the fitted concentration of half-maximal effect.

SMILES | activity change, positive = activation | Potency
COc1ccc(C(=O)Nc2ccc(-c3cc(C(F)(F)F)nn3-c3ccccc3)cc2)cc1OC | inactive: -33.5% | –
CCc1cccc(C)c1NS(=O)(=O)c1ccc(-n2cccn2)cc1 | inactive: -39.1% | –
CC(=O)N1CCCc2cc(S(=O)(=O)NCc3ccc(OC(C)C)cc3)ccc21 | inactive: -20.1% | –
COc1ccc(-c2nn(-c3ccc(F)cc3F)c3c2cnc2ccc(F)cc23)cc1 | inactive: -6.24% | –
CCOc1ccc(-c2nonc2NC(=O)c2oc3cc(Br)ccc3c2C)cc1 | inactive: -32.7% | –
COc1cc(C2CC(=O)Nc3cc4c(cc32)OCCO4)cc(OC)c1O (stereo not drawn) | inactive: -24.9% | –
Nc1ccn(C2CO[C@H](CO)O2)c(=O)n1 (stereo partly drawn) | inactive: -6.68% | –
O=c1[nH]c2cc(C(F)(F)F)c(N3CCOCC3)cc2n(CP(=O)(O)O)c1=O | inactive: -5.84% | –
CCCCC(=O)Nc1ccc(OCc2cc(=O)n3ccc(C)cc3n2)cc1 | inactive: -5.87% | –
CCCCN(CCCC)c1nc(-c2ccccc2)nc2ccccc12 | inactive: -29.9% | –
COc1ccc(C(Cl)=C(c2ccc(OC)cc2)c2ccc(OC)cc2)cc1 | inactive: -5.93% | –
Cc1oc(-c2cccc(Cl)c2)nc1CSCC(=O)O | inactive: -17.3% | –
CCN(C(=O)c1cc2c(Cl)nc3ccc(C)cc3c2s1)c1cc(OC)ccc1OC | inactive: -12.9% | –
CCC(=O)Nc1ccc(C)cc1-c1nc2ccccc2n(Cc2ccccc2)c1=O | inactive: -11.6% | –
CC1(c2ccccc2)CC(C)(C)N(C(=O)c2ccccc2Cl)c2ccccc21 (stereo not drawn) | inactive: -39% | –
COc1ccccc1C(=O)Nc1c(C(=O)Nc2ccc(C)cc2)oc2ccccc12 | inactive: 0.772% | –
CCOC(=O)c1c(N)sc2c1CCN(Cc1ccccc1)C2 | inactive: -2.37% | –
COc1ccc(NC(=O)C2CCCN2S(=O)(=O)c2ccc3c(c2)CCCC(=O)N3)cc1Cl (stereo not drawn) | inactive: -24.6% | –
CCOC(=O)c1[nH]c(C)c(C(=O)NCc2ccc(F)cc2)c1C | inactive: 0% | –
COc1cc(CNCCSc2nnnn2C)ccc1OCc1c(F)cccc1Cl | inactive: -15.4% | –
Cc1cccc(-c2nnc(SCCC(=O)O)o2)c1 | inactive: -91% | –
CCOc1ccc(CCNC(=O)c2cnc3c(-c4ccccc4)c(C)nn3c2C)cc1OCC | inactive: -5.01% | –
Cc1cccc(NC(=O)CN2C(=O)CCc3ccccc32)c1C | inactive: -26.5% | –
COc1ccc(N2CCN(c3oc(/C=C/c4cccc(OC)c4)nc3C#N)CC2)cc1 | inactive: -6.57% | –
CCc1ccc(CNC(=O)C2CCN(c3nnc(-n4c(C)ccc4C)s3)CC2)cc1 | inactive: -22.1% | –

SMILES | activity change, positive = activation | Potency
CC(C)c1ccc(OCC(=O)Nc2cc(-c3nc4ncccc4o3)ccc2Cl)cc1 | inactive: -15.3% | –
O=[N+]([O-])c1ccc(C(c2sc3nc(-c4ccco4)nn3c2O)N2CCC3(CC2)OCCO3)cc1 (stereo not drawn) | inactive: -1.78% | –
O=C(O)c1cccnc1Nc1cccc(C(F)(F)F)c1 | inactive | –
COc1ccccc1CNC(=O)C(C)n1c(=O)cc(C(F)(F)F)c2c(C)nn(C)c21 (stereo not drawn) | inactive: -11.3% | –
CCOc1ccc(CCNC(=O)c2sc3nc4n(c(=O)c3c2C)CCCC4)cc1 | inactive: -10.5% | –
O=C(O)Cn1nc(N2CCN(c3ccccc3)CC2)ccc1=O | inactive: 3.09% | –
Cc1sc2c(c1C)c(=O)n(Cc1ccccc1)c(=O)n2CC(=O)Nc1cccc(Cl)c1 | inactive: -15.2% | –
Cc1ccccc1C(=O)NCc1ccc2c(c1)CCN2C(=O)c1ccc(F)cc1 | inactive: -10.4% | –
CC1CCC(NC(=O)CCc2cn(Cc3ccc(F)cc3)c3ccccc23)CC1 (stereo not drawn) | inactive: -4.92% | –
COc1ccc(NC(=O)c2nc(S(=O)(=O)Cc3ccc(C)cc3)ncc2Cl)cc1 | inactive: -28.6% | –
Cc1nn2c(=O)cc(COC(=O)COc3ccccc3C)nc2s1 | inactive: 1.35% | –
O=C(O)C1=CC(c2ccc(Br)cc2)n2ncnc2N1 (stereo not drawn) | inactive: 1.99% | –
O=C(CCS(=O)(=O)c1nc(-c2cccs2)cc(C(F)(F)F)n1)Nc1cccc(O)c1 | inactive: -94.2% | –
COc1ccccc1CNC(=O)c1cc(-c2ccccc2)n[nH]1 | inactive: -0.262% | –
CCc1ccc(S(=O)(=O)c2cnc(SCC(=O)Nc3ccc(OC)cc3OC)[nH]c2=O)cc1 | inactive: 22% | –
Cc1ccc2nc(NC(=O)CSc3ncc(C(=O)Nc4ccccc4)c(=O)n3C)sc2c1 | inactive: 14.3% | –
CCOc1ccccc1N(CC)C(=O)c1cc2ccc3cccnc3c2[nH]1 | inactive: -2.51% | –
Cn1c2ccc(F)cc2c2nnc(SCCN3CCCCC3)nc21 | inactive: -13.6% | –
CC(C)NC(=O)c1sc2ncccc2c1-n1cccc1 | inactive: 7.94% | –
O=C(COc1ccc(Br)cc1)Nc1cccc2cccnc12 | inactive: 16.3% | –
COC(=O)CN1C(=O)C(C)(C)c2cc(S(=O)(=O)Nc3ccc(C(C)C)cc3)ccc21 | inactive: -52.7% [at 11.5 µM, percent change from vehicle, -100% = no light] | –
Cc1ccc(C)c(CN2C(=O)C(O)(c3c[nH]c4ccccc34)c3ccccc32)c1 (stereo not drawn) | inactive: -30.7% | –
CCc1cccc(NC(=O)c2coc(=O)c3ccccc23)c1 | inactive: -11.1% | –
COC(=O)c1ccc(Cl)cc1NC(=O)N1CCC(CN2CCC(C)CC2)CC1 | inactive: -14.9% | –
COc1cccc(NC(=O)c2oc3ccccc3c2NC(=O)Cc2cccc(C)c2)c1 | inactive: -3.26% | –

SMILES | activity change, positive = activation | Potency
Cc1cn2c(=O)cc(COC(=O)C(C)Oc3ccccc3)nc2s1 (stereo not drawn) | inactive: -10.8% | –
NC1(C(=O)N[C@@H](CCO)c2ccc(Cl)cc2)CCN(c2ncnc3[nH]ccc23)CC1 | inactive: -43.3% | –
CCc1ccc(-n2nc(CO)c(C(=O)NCCCCc3ccccc3)n2)cc1 | inactive: -7.27% | –
O=C(NCc1ccc(Cl)cc1)c1cc(-c2ccc(F)cc2)on1 | inactive: 0.75% | –
Cc1ccccc1OCC(=O)N(Cc1ccc(C(C)C)cc1)C1CCS(=O)(=O)C1 (stereo not drawn) | inactive: -23.1% | –
CCOC(=O)[C@H](CCc1ccccc1)N[C@@H](C)C(=O)N1Cc2ccccc2C[C@H]1C(=O)O | inactive: -5.99% | –
CCOc1ccc(C(=O)c2cn(CC(=O)Nc3ccc(C)c(C)c3)c3ccc(OCC)cc3c2=O)cc1 | inactive: -8.74% | –
COc1ccc(N2CC(NC(=O)c3ccc(S(=O)(=O)N4CCOCC4)cc3)CC2=O)cc1 (stereo not drawn) | inactive: -28.7% | –
COc1ccccc1NC(=O)C1CCN(c2ncnc3c2nc2n3CCCCC2)CC1 | inactive: -16.7% | –
COc1cc2c(cc1OC)C(COc1ccc(C(C)C)cc1)N(C(=O)COc1ccccc1)CC2 (stereo not drawn) | inactive: -28.8% | –
CCS(=O)(=O)c1nc(S(=O)(=O)c2ccc(C)cc2)c(NCc2ccccc2Cl)s1 | inactive: -17.9% | –
COc1ccc(OCC(=O)N2CCN(C(=O)c3ccc(OC)cc3)CC2)cc1 | inactive: -12.4% | –
COc1ccc(CCNC(=O)CCCn2c(=O)c3cccn3c3ccc(F)cc32)cc1OC | inactive: -11.6% | –
CCOc1ccc(Nc2nc(Nc3ccc(OCC)cc3)nc(N3CCOCC3)n2)cc1 | inactive: -12.5% | –
Cc1cccc(C)c1NC(=O)Cn1c(=O)n(Cc2ccc3c(c2)OCO3)c(=O)c2oc3ccccc3c21 | inactive: -9.16% | –
CCOc1ccc(OCC)c(NC(=O)C(NS(=O)(=O)c2cccs2)c2ccccc2)c1 (stereo not drawn) | inactive: -16.8% | –
Fc1ccc(-n2ncc3c(NCCC4=CCCCC4)ncnc32)cc1 | – | active: 10 µM
COc1ccc(C(=O)Nc2cc(S(=O)(=O)c3ccc(Cl)cc3)c(O)c(C)c2C)cc1 | inactive: 10.3% | –
O=C(Nc1ccc(Br)cc1)C(Cc1ccccc1)NS(=O)(=O)c1cccc2nsnc12 (stereo not drawn) | inactive: -9.79% | –
COc1ccccc1NC(=O)Cn1nc(-c2ccc(C)cc2)c2c(c1=O)CCCC2 | inactive: -22.3% | –
Cc1ccc(CNC(=O)c2c(C)oc3nc(C)nc(N4CCOCC4)c23)cc1 | inactive: -5.57% | –
CCc1ccc(-n2nc3cc(C)c(NC(=O)c4cc(OC)cc(OC)c4)cc3n2)cc1 | inactive: 3.55% | –
CC(C)(C)c1ccc(C(=O)NCC(c2cccs2)S(=O)(=O)c2cccs2)cc1 (stereo not drawn) | inactive: -30.7% | –
COc1cc(CN2CCc3nc(N4CCN(c5ccccn5)CC4)ncc3C2)cc(OC)c1OC | inactive: -58.9% | –
CCOc1ccc(S(=O)(=O)n2nc(C)c(S(=O)(=O)N3CCCCC3)c2C)cc1 | inactive: -9% | –

SMILES | activity change, positive = activation | Potency
O=C(Nc1ccc(Cl)cc1C(F)(F)F)c1cc(S(=O)(=O)N2CCOCC2)ccc1F | inactive: -22.1% | –
CC(C)(C)OC(=O)N1CCC(c2c(C(=O)NCc3ccco3)cnn2-c2ccccc2Cl)CC1 | inactive: -14.9% | –
Cc1nn(CCCC(=O)NCc2ccccc2)c(=O)c2cc3sccc3n12 | inactive: -8.4% | –
COC(=O)c1ccccc1NS(=O)(=O)c1ccc2c(c1)CCCN2C(C)=O | inactive: -20.4% | –
CC(=O)c1cc(-c2ccccc2)n(CCC(=O)NC(C)c2ccccc2)c1C (stereo not drawn) | inactive: -15.2% | –
N/C(=N\N=C\c1ccc(Cl)cc1)N/N=C/c1ccc(Cl)cc1 | inactive: -10.2% | –
COc1ccc(C(=O)Nc2cc3c(cc2N2CCCC2)n(C)c(=O)c(=O)n3C)cc1OC | inactive: -35.7% | –
CCCC(=O)n1nc(-c2cccnc2)nc1NCc1ccc(OC)cc1 | inactive: 6.66% | –
COc1cc(NC(=O)CNS(=O)(=O)c2cccs2)cc(OC)c1OC | inactive: 0.227% | –
O=C(NCc1cccs1)c1ccc(CSc2nc3ccncc3n2Cc2ccccc2)cc1 | inactive: 0.355% | –
CC1CCC(NC(=O)c2ccc(CS(=O)(=O)c3cccc(C(F)(F)F)c3)o2)CC1 (stereo not drawn) | inactive: -21.8% | –
CCOc1ccc(S(=O)(=O)NCCc2csc3nc(-c4ccc(F)cc4)nn23)cc1 | inactive: -41.6% | –
COc1cccc(C2=NS(=O)(=O)N(C)C(C(=O)Nc3ccccc3SC)=C2)c1 | inactive: -7.21% | –
Cc1ccc(C)c(Cn2c(=O)n(Cc3ccccc3)c(=O)c3c2c2cc(C)ccc2n3C)c1 | inactive: 17.3% | –
Cc1ccc(C(=O)Nc2ccc(S(=O)(=O)Nc3onc(C)c3C)cc2)cc1 | inactive: 18.7% | –
CCOC(=O)c1ccc(NC(=O)Cn2c(=O)cc(C(F)(F)F)c3c(C)nn(C)c32)cc1 | inactive: -3.1% | –
Cc1ccc(Cl)cc1N1CCN(CCCNC(=O)C2COc3ccccc3C2)CC1 (stereo not drawn) | inactive: -34.7% | –
Fc1ccc(CSc2nc(NCc3ccccc3)c3ccccc3n2)cc1 | inactive: -24.6% | –
COc1ccc(CNC(=O)Cn2c(=O)cc(C)c3c(C)nn(-c4cccc(Cl)c4C)c32)cc1 | inactive: 4.63% | –
Cc1cccc(CSCc2ccc(C(=O)NCCc3ccccc3)o2)c1 | inactive: -6.27% | –
COc1ccccc1CCNC(=O)Cc1c(C)c2cc3c(C)coc3cc2oc1=O | inactive: 0.786% | –
O=C(c1cc2ccccc2oc1=O)N1CCN(c2ccc(F)cc2)CC1 | inactive: -5.82% | –
Cc1cc(C)c2c(CC(=O)Nc3ccc(S(=O)(=O)N4CCCCC4)cc3)coc2c1 | inactive: -15.6% | –
